Results taken from PubChem BioAssay AID485281 (National Center for Advancing Translational Sciences (NCATS), 2010).
In all, about 350,000 compounds went through this assay and about 260 (0.074%) were called active. Inconclusive means that the source gave no clear call. Such entries were picked first, then a sample of the others. The call rests on the fitted dose curve; in most records, active means well fitted inhibition curve with a large enough effect; inconclusive means small, poorly fitted or top-dose-only effect; inactive means no such curve, though single readings can be large or run the other way. Where the call is inconclusive, the potency comes from a doubtful curve fit.

molecular target: Ferritin light chain (Equus caballus) (UniProt P02791); experiment: qHTS Assay for Identification of Novel General Anesthetics; conditions: apoferritin/1-aminoanthracene competitive binding, fluorescence; activity change, negative = displacement: at 77.5 µM (top of the series); further: nearly all actives have a fitted effect of over 20% in size
Chain of UniProt P02791 (P02791 whole entry, looked up): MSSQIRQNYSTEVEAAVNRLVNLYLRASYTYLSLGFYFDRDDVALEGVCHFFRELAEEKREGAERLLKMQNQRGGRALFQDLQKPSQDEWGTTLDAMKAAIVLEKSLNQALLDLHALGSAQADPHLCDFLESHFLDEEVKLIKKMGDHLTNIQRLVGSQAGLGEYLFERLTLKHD
Outline: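 Steps: apoferritin (10 uM) was premixed with half-saturated 1-AMA in PBS, compounds were pin-transferred, plates stood 10 min at room temperature, fluorescence was read at 380/535 nm, and curves were fitted with a Hill equation.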
On the % scale 0 is the no-effect control and ±100 the full control effect; potency means the concentration at half of the fitted maximal effect; tags describe the fitted curve by direction and shape.

Potency, inconclusive:
O=C(CC1N=C2c3ccccc3N=C(SCc3ccc(F)cc3)N2C1=O)NCc1cccs1 (stereo not given) 5.01 µM [inhibitor, partial curve]
COc1ccc(C(=O)CSc2nnc(Cc3ccccc3)o2)cc1 35.5 µM [inhibitor, partial curve]
COc1ccc(OCc2cc(C(=O)N3CCCCCC3)no2)c(Cl)c1 50.1 µM [inhibitor, single point]
COc1ccc(C=O)cc1COc1c(F)c(F)cc(F)c1F 39.8 µM [inhibitor, single point]
CCCCOC(=O)CCn1c(=S)oc2ccccc21 31.6 µM [inhibitor, partial curve]
N#C/C(=C/c1cc[nH]c1)C(N)=S 39.8 µM [inhibitor, single point]
CC(C)Cn1nc(NS(=O)(=O)c2cccc3nonc23)c2cc3ccccc3nc21 28.2 µM [inhibitor, single point]
COc1ccccc1-c1nc(SCC(=O)NCc2ccco2)c2c(=O)n(C)c(=O)n(C)c2n1 35.5 µM [inhibitor, partial curve]
C[C@@H]1C=CC(=O)O[C@@H]1c1ccc(Cl)cc1 35.5 µM [inhibitor, partial curve]
CCc1ccc(NC(=O)CSc2nc(-c3ccccc3)c(C#N)c(=O)[nH]2)cc1 22.4 µM [inhibitor, partial curve]
CCn1c(Cc2cccn2C)nnc1SCC(=O)c1ccc(C)cc1 17.8 µM [inhibitor, partial curve]
CC(C)(C)c1nnc2sc(SCC(=O)c3cccs3)nn2c1=O 20 µM [inhibitor, partial curve]
O=C(c1ccc(CSc2ccccc2)cc1)N1CCCCCC1 39.8 µM [inhibitor, single point]
CC(=O)Nc1ccccc1-c1nc2ccc(C(=O)N3CCN(c4cccc(C)c4)C(C)C3)cc2[nH]c1=O (stereo not given) 44.7 µM [inhibitor, single point]
O=[N+]([O-])c1cncc([N+](=O)[O-])c1Nc1cccc(O)c1 17.8 µM [inhibitor, partial curve]
NC(=O)CC(NC(=O)c1ccc(Br)cc1)c1ccc(NC2CCCCCCC2)c([N+](=O)[O-])c1 (stereo not given) 3.16 µM [inhibitor, full curve]
Cc1cc(Cl)c(S(=O)(=O)N/N=C/c2ccc3c(c2)OCO3)c(Cl)c1 28.2 µM [inhibitor, single point]
CCN1CCC(=NNC(=O)c2ccc(C)c([N+](=O)[O-])c2)CC1 31.6 µM [inhibitor, single point]
O=C1c2ccccc2C(=O)N1CC#CCN1CCN(C2CCCCC2)CC1 39.8 µM [inhibitor, single point]
O=C(CSc1ncc(-c2ccccc2)[nH]1)Nc1cccc(C(F)(F)F)c1 35.5 µM [inhibitor, partial curve]
Cc1ccc(OCC(=O)Nc2ccc(S(=O)(=O)N3CCOCC3)cc2)c(Br)c1 3.16 µM [inhibitor, full curve]
O=S1(=O)C=C(SCc2ccc(Cl)c(Cl)c2)Nc2ccccc21 11.2 µM [inhibitor, partial curve]
COc1ccc(-c2ccc(=O)n(Cc3cccc([N+](=O)[O-])c3)n2)cc1 35.5 µM [inhibitor, partial curve]
Cc1ccccc1CC(=O)Nc1ccc(S(=O)(=O)N2CCOCC2)cc1 35.5 µM [inhibitor, partial curve]
O/N=C/c1cc(Cl)ccc1OCc1ccccc1Cl 22.4 µM [inhibitor, partial curve]
CC(C)(C)C(=O)/C=c1\[nH]c(=O)/c(=C\c2ccc(F)cc2)s1 17.8 µM [inhibitor, partial curve]
O=C(NCCc1ccccc1)c1cccc(N2C(=O)C3CC=CCC3C2=O)c1 (stereo not given) 28.2 µM [inhibitor, partial curve]
Cc1ccc(NC(=O)CCC(=O)OCCCC(F)(F)C(F)(F)F)cc1 20 µM [inhibitor, partial curve]
COC(=O)c1ccccc1NC(=O)CSc1nc(-c2ccco2)cc(C(F)(F)F)n1 3.98 µM [inhibitor, partial curve]
Cc1ccc(C(=O)Cn2c(C)cc(C)c(C#N)c2=O)cc1 44.7 µM [inhibitor, single point]
CCCCN(C(=O)NC(=O)Nc1cccc(C)c1C)S(C)(=O)=O 35.5 µM [inhibitor, single point]
C/C=C(/C)C(=O)O[C@@H]1c2c(ccc3ccc(=O)oc23)OC(C)(C)[C@@H]1OC(=O)/C(C)=C\C 39.8 µM [inhibitor, partial curve]
Cc1cccc(NC(=O)Cn2nc(C(F)(F)F)cc2C2CC2)c1 44.7 µM [inhibitor, single point]
O=C(/C=C/c1ccccc1[N+](=O)[O-])N1CCc2ccccc2C1 35.5 µM [inhibitor, partial curve]
CCCCc1ccc(NC(=O)N2CCNC(=O)C2CC(=O)Nc2ccsc2C(=O)OC)cc1 (stereo not given) 17.8 µM [inhibitor, single point]
Cc1cc(-c2nnc(SCC(=O)Nc3ccccc3C(F)(F)F)o2)c(C)n1-c1ccccc1 31.6 µM [inhibitor, partial curve]
Cc1cc(C)cc(NC(=O)N2CCc3ccccc3C2)c1 25.1 µM [inhibitor, partial curve]
O=C(/C=C/c1ccccc1)NCCSc1ccc(Cl)cc1 31.6 µM [inhibitor, partial curve]
O=C(CSCc1ccccc1)Nc1ccc(Cl)cn1 35.5 µM [inhibitor, partial curve]
CCOC(=O)c1nn(-c2ccc(C)cc2)cc1C(=O)c1ccccc1 4.47 µM [inhibitor, full curve]
O=S(=O)(NC1CCCCCCC1)c1cccs1 14.1 µM [inhibitor, partial curve]
CC(=O)Oc1ccc(/C=N/NC(=O)CCSc2ccccc2)cc1 15.8 µM [inhibitor, partial curve]
CCOC(=O)C1=C(C)N(CC(C)C)C(=O)/C1=C\c1ccc(OCC(=O)Nc2ccccc2)cc1 20 µM [inhibitor, partial curve]
CCc1ccc(N(C(=O)c2snc(C(N)=O)c2N)C(C(=O)NCCC(C)C)c2c[nH]c3ccccc23)cc1 (stereo not given) 3.55 µM [inhibitor, partial curve]
O=C(CC1N=C2c3ccccc3N=C(SCc3cccc(F)c3)N2C1=O)NCc1ccc2c(c1)OCO2 (stereo not given) 10 µM [inhibitor, full curve, poor fit]
COc1cccc(-c2ccc(SCC(=O)NC3CCCCC3)nn2)c1 28.2 µM [inhibitor, partial curve]
O=C(Nc1ccc(Cc2ccncc2)cc1)C1CCC(N2C(=O)C3C4C=CC(C5CC45)C3C2=O)CC1 (stereo not given) 3.98 µM [inhibitor, full curve]
Cn1nc(C(=O)Nc2ccccc2N2CCCC2)c2ccccc2c1=O 17.8 µM [inhibitor, partial curve]
CCOc1ccc(OCc2ccc(C(=O)OCc3ccccn3)o2)cc1 2.82 µM [inhibitor, full curve, poor fit]

Potency, inactive:
Cc1nn(Cc2ccc(Cl)cc2)c(C)c1NC(=O)c1noc2c1CCc1ccccc1-2

Activity change, negative = displacement, inactive:
COc1ccc(-c2nn(-c3ccccc3C)cc2CNCc2cccnc2)cc1F -14.1%
CS(=O)(=O)N(CC(=O)NCc1cccnc1)Cc1ccc(Cl)cc1 -4.59%
O=C(Nc1cnc(N2CCC(N3CCCCC3)CC2)c(C(=O)O)c1)c1ccc(Br)cc1 7.37%
CCc1ccc(CNC(=O)Cn2c(-c3cccs3)cc3cc(F)ccc32)cc1 12.8%
COc1ccc(-n2c(=O)c3c(c4cc(OC)ccc4n3C)n(Cc3ccc(F)cc3Cl)c2=O)cc1 -3.67%
COc1cc(CN2CCN(C(O)(c3ccccc3)c3ccccc3)CC2)cc(OC)c1OC -7.44%
CC1=C(C(=O)Nc2ccc(Cl)cc2)C(C(C)C)n2nc(SCc3ccc(Cl)cc3)nc2N1 (stereo not given) 3.62%
COc1ccccc1CNC(=O)Cn1c(=O)oc2cc(S(=O)(=O)NCc3ccccc3)ccc21 -0.156%
CCN(Cc1ccccc1)C(=O)CN1C(=O)COc2ccc(S(=O)(=O)N(CC)CC)cc21 -5.89%
COc1cc(CN(C(=O)c2cccc(C)c2)c2ccccn2)cc(OC)c1OC -4.87%
CCOc1ccc(C(=O)NCCn2cc(SCC(=O)Nc3ccccc3)c3ccccc32)cc1 38.2%
O=C(O)c1ccc(N/N=C/c2ccc(-c3ccccc3)cc2)cc1 -1.22%
O=[N+]([O-])c1cc([N+](=O)[O-])c2cccnc2c1Oc1ccccc1O -2.56%
Cc1ccc2nc(-c3ccc(N)cc3)sc2c1 106%
Cc1cc(-c2ccccc2)c2c3c(c(-c4ccccc4)n2n1)c(=O)n(C)c(=O)n3C -5.06%
